A collection of fitness landscapes (doi:10.1016/j.celrep.2020.107928)
Over roughly 81,000 sequences, “one-hybrid fitness for binding parS DNA” has its median near -0.17; the highest 2% begin near 0.51. The list shows a part of the results.

B1: Caulobacter ParB omega fusion; a variant is named by its letters at X, in order, B8GW30 (parent)
chain: MESVVVGEPGMSEGRRGLGRGLSALLGEVDAAPAQAPGEQLGGSREAPIEILQRNPDQPRRTFREEDLEDLSNSIREKGVLQPILVRPSPDTAGEYQIVAGERAWRAAQRAGLKTVPIMVRELDDLAVLEIGIIENVQRADLNVLEEALSYKVLMEKFERTQENIAQTIGKSXSHVANXMRLLXLPDEVQSYLVSGELTAXHARAIAAAADPVALAKQIIEGGLSVRETEALARKAPNLSAGKSKGGRPPRVKDTDTQALESDLSSVLGLDVSIDHRGSTGTLTITYATLEQLDDLCNRLTRGI

Variants of: B1
Test: one-hybrid fitness for binding parS DNA (scaled: cognate 1, non-cognate 0); higher = stronger binding
Conditions: with parS DNA site
Method in brief: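 Fitness here means the log change in variant-to-wild-type read ratio between plasmids sequenced before and after selection. That scale was set so cognate equals 1 and non-cognate equals 0. The selection was a bacterial one-hybrid screen of Caulobacter ParB libraries, four specificity codons randomised, in E. coli USO carrying a HIS3 reporter with the site 19 bp from the promoter, grown 48 hours at 37°C on M9-minus-histidine with 0.1 mM IPTG and 5 mM 3-AT.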

Variant | one-hybrid fitness for binding parS DNA
QSYV | ≤ 0.2
VTDC | ≤ 0.2
TPNK | ≤ 0.2
TIHK | ≤ 0.2
VTHV | ≤ 0.2
AGAI | ≤ 0.2
LNLI | ≤ 0.2
KVRH | ≤ 0.2
QWMD | ≤ 0.2
RTDC | 0.887
IRET | ≤ 0.2
WRRS | ≤ 0.2
IHIL | ≤ 0.2
TWTK | ≤ 0.2
RALY | 0.48
AAKV | ≤ 0.2
SGFH | 0.283
QSNS | ≤ 0.2
LHRY | ≤ 0.2
ITKK | ≤ 0.2
DKPY | ≤ 0.2
PLVA | ≤ 0.2
VMPC | ≤ 0.2
SSNY | ≤ 0.2

Variant | one-hybrid fitness for binding parS DNA
LYDF | ≤ 0.2
HVFP | ≤ 0.2
RFIM | ≤ 0.2
RLSK | ≤ 0.2
PVTT | ≤ 0.2
YTKC | ≤ 0.2
MRLL | ≤ 0.2
THSD | ≤ 0.2
GLSD | ≤ 0.2
SSRR | ≤ 0.2
TCWC | ≤ 0.2
LVWC | ≤ 0.2
NTIS | ≤ 0.2
VAGS | ≤ 0.2
TKER | ≤ 0.2
KWVR | ≤ 0.2
NDVD | ≤ 0.2
SAPW | ≤ 0.2
QPER | ≤ 0.2
YVED | ≤ 0.2
GEWR | ≤ 0.2
HEQT | ≤ 0.2
HENC | ≤ 0.2
LNSA | ≤ 0.2

Variant | one-hybrid fitness for binding parS DNA
DVSS | ≤ 0.2
APIV | ≤ 0.2
SMLG | ≤ 0.2
TIFS | ≤ 0.2
PYTY | ≤ 0.2
GYVS | ≤ 0.2
KEPN | ≤ 0.2
EARW | ≤ 0.2
DQTL | ≤ 0.2
SWWY | ≤ 0.2
WSKK | ≤ 0.2
SCTW | ≤ 0.2
TRMV | ≤ 0.2
MILC | ≤ 0.2
LSNH | ≤ 0.2
KMQL | ≤ 0.2
SIAR | ≤ 0.2
RFPQ | ≤ 0.2
LYRS | ≤ 0.2
RLQD | ≤ 0.2
VHTS | ≤ 0.2
QVAT | ≤ 0.2
RALT | 0.888
ARPE | ≤ 0.2

Variant | one-hybrid fitness for binding parS DNA
ENIE | ≤ 0.2
DYSV | ≤ 0.2
HNQM | ≤ 0.2
RDES | ≤ 0.2
LCDS | ≤ 0.2
QADK | ≤ 0.2
KWSS | ≤ 0.2
NCPW | ≤ 0.2
TPSY | ≤ 0.2
TTTE | ≤ 0.2
WQCS | ≤ 0.2
HFFC | ≤ 0.2
TPSE | ≤ 0.2
FLLT | ≤ 0.2
VQKD | ≤ 0.2
KLTC | ≤ 0.2
EDSN | ≤ 0.2
GYSS | ≤ 0.2
AHHC | ≤ 0.2
VPTF | ≤ 0.2
DVLT | ≤ 0.2
QLYA | ≤ 0.2
SEQA | ≤ 0.2
DTNY | ≤ 0.2

Variant | one-hybrid fitness for binding parS DNA
HPIG | ≤ 0.2
WADR | ≤ 0.2
WSLS | ≤ 0.2
KGSV | ≤ 0.2
RDDF | ≤ 0.2
KMTS | ≤ 0.2
IPCW | ≤ 0.2
LERA | ≤ 0.2
AALC | ≤ 0.2
GTRP | ≤ 0.2
TWAD | ≤ 0.2
ITIS | ≤ 0.2
KHGC | ≤ 0.2
LLMF | ≤ 0.2
IRVN | ≤ 0.2
CPYG | ≤ 0.2
SFES | ≤ 0.2
VHYI | ≤ 0.2
NLQQ | ≤ 0.2
HRRC | 0.41
STIK | ≤ 0.2
SDKI | ≤ 0.2
AAYV | ≤ 0.2
TKVG | ≤ 0.2

Variant | one-hybrid fitness for binding parS DNA
QLCA | ≤ 0.2
HLWT | ≤ 0.2
VGCR | ≤ 0.2
NCTH | ≤ 0.2
RQYC | 0.94
QRGV | ≤ 0.2
GSPC | ≤ 0.2
YSLV | ≤ 0.2
ANKN | ≤ 0.2
KIQL | ≤ 0.2
EEIR | ≤ 0.2
GNLK | ≤ 0.2
TLYK | ≤ 0.2
AAQD | ≤ 0.2
IRIS | ≤ 0.2
HPAM | ≤ 0.2
IMGR | ≤ 0.2
CMIN | ≤ 0.2
RGPQ | ≤ 0.2
SRAW | ≤ 0.2
KTQV | ≤ 0.2
EADT | ≤ 0.2
RCPP | ≤ 0.2
SQVA | ≤ 0.2

Variant | one-hybrid fitness for binding parS DNA
HACR | ≤ 0.2
TKNM | ≤ 0.2
RGVD | ≤ 0.2
NYTL | ≤ 0.2
CKQF | 0.29
DQPS | ≤ 0.2
AEPS | ≤ 0.2
YQPW | ≤ 0.2
TKDI | ≤ 0.2
MAES | ≤ 0.2
RYNA | 0.58
PTWY | ≤ 0.2
RHAN | 0.371
QIHM | ≤ 0.2
VPED | ≤ 0.2
QPIL | ≤ 0.2
IRKS | ≤ 0.2
SEMP | ≤ 0.2
AITW | ≤ 0.2
KHHT | ≤ 0.2
RSEI | ≤ 0.2
PLIN | ≤ 0.2
KQQG | ≤ 0.2
HAPK | ≤ 0.2

Variant | one-hybrid fitness for binding parS DNA
KPAG | ≤ 0.2
WHSV | ≤ 0.2
ERQS | ≤ 0.2
WEDM | ≤ 0.2
KHMV | ≤ 0.2
GVCR | ≤ 0.2
SQCR | ≤ 0.2
TKIG | ≤ 0.2
LGWQ | ≤ 0.2
LCNQ | ≤ 0.2
EHWM | ≤ 0.2
KPGS | ≤ 0.2
EMKQ | ≤ 0.2
RSGM | 0.333
DSNF | ≤ 0.2
LVQE | ≤ 0.2
PYFM | ≤ 0.2
PKPR | ≤ 0.2
ACGL | ≤ 0.2
SSYI | ≤ 0.2
IAWK | ≤ 0.2
ERGR | ≤ 0.2
REAQ | ≤ 0.2
QVCE | ≤ 0.2

Variant | one-hybrid fitness for binding parS DNA
NHKV | ≤ 0.2
GATR | ≤ 0.2
ARML | ≤ 0.2
SIFW | ≤ 0.2
IDKS | ≤ 0.2
RFIN | 0.206
ATFS | ≤ 0.2
RLCY | 0.485
LTLQ | ≤ 0.2
NCLL | ≤ 0.2
DRKK | ≤ 0.2
LPSH | ≤ 0.2
HSCM | ≤ 0.2
RFMS | 0.983
QCMI | ≤ 0.2
TVFA | ≤ 0.2
MNDA | ≤ 0.2
SRSN | ≤ 0.2
GCQM | ≤ 0.2
MQSG | ≤ 0.2
LQQY | ≤ 0.2
SKIR | ≤ 0.2
VHSI | ≤ 0.2
KDSD | ≤ 0.2

Variant | one-hybrid fitness for binding parS DNA
GKSD | ≤ 0.2
ISYL | ≤ 0.2
AHDA | ≤ 0.2
YHIP | ≤ 0.2
KVTW | ≤ 0.2
AQWS | ≤ 0.2
NFSG | ≤ 0.2
SHLM | ≤ 0.2
ENTM | ≤ 0.2
CDVF | ≤ 0.2
QKVN | ≤ 0.2
SLVW | ≤ 0.2
IGFS | ≤ 0.2
LTEQ | ≤ 0.2
LCSW | ≤ 0.2
DHNR | ≤ 0.2
KAKK | ≤ 0.2
RSHK | ≤ 0.2
NLQA | ≤ 0.2
FRGR | ≤ 0.2
NRMD | ≤ 0.2
CMKT | ≤ 0.2
YGSG | ≤ 0.2
FLQG | ≤ 0.2

Variant | one-hybrid fitness for binding parS DNA
TIPV | ≤ 0.2
GACT | ≤ 0.2
TNRV | ≤ 0.2
KDIR | ≤ 0.2
VTPL | ≤ 0.2
RNSH | ≤ 0.2
RYGG | 0.97
QMVL | ≤ 0.2
MSYN | ≤ 0.2
RCKH | ≤ 0.2
QCRI | ≤ 0.2
SRCR | ≤ 0.2
QNVK | ≤ 0.2
EYAR | ≤ 0.2
FLLG | ≤ 0.2
WVKG | ≤ 0.2
RMGW | 0.233
DPSG | ≤ 0.2
TPLW | ≤ 0.2
AWAC | ≤ 0.2
LWKM | ≤ 0.2
TLRN | ≤ 0.2
NPSC | ≤ 0.2
SARI | ≤ 0.2

Variant | one-hybrid fitness for binding parS DNA
LTDP | ≤ 0.2
PAHL | ≤ 0.2
PSIF | ≤ 0.2
TETC | ≤ 0.2
GPGR | ≤ 0.2
CDVR | ≤ 0.2
MKWG | ≤ 0.2
GTSA | ≤ 0.2
IART | ≤ 0.2
SNDY | ≤ 0.2
RFTP | ≤ 0.2
PRYA | ≤ 0.2
MDPC | ≤ 0.2
QVRP | ≤ 0.2
LMYC | ≤ 0.2
GPLC | ≤ 0.2
DTTV | ≤ 0.2
LKMA | ≤ 0.2
PAIS | ≤ 0.2
RNQC | 0.82
QFNS | ≤ 0.2
FHSV | ≤ 0.2
ILNS | ≤ 0.2
NVET | ≤ 0.2

Variant | one-hybrid fitness for binding parS DNA
VALI | ≤ 0.2
PCRI | ≤ 0.2
WPKG | ≤ 0.2
VKSF | ≤ 0.2
STEN | ≤ 0.2
GEPK | ≤ 0.2
TNVW | ≤ 0.2
ITEL | ≤ 0.2
ILMM | ≤ 0.2
QIGS | ≤ 0.2
LRWK | ≤ 0.2
KCTT | ≤ 0.2
AEHP | ≤ 0.2
FAMR | ≤ 0.2
DKGS | ≤ 0.2
VEKP | ≤ 0.2
RLME | ≤ 0.2
RQIN | 0.248
